Measured values as given in a collection of fitness landscapes (doi:10.1016/j.celrep.2020.107928).
Whole data set: some 81,000 sequences, median “one-hybrid fitness for binding parS DNA” near -0.17, cut for the highest 2% near 0.51. Some of the results follow.

B1: Caulobacter ParB omega fusion; a variant is named by its letters at X, in order, B8GW30 (parent)
chain: MESVVVGEPGMSEGRRGLGRGLSALLGEVDAAPAQAPGEQLGGSREAPIEILQRNPDQPRRTFREEDLEDLSNSIREKGVLQPILVRPSPDTAGEYQIVAGERAWRAAQRAGLKTVPIMVRELDDLAVLEIGIIENVQRADLNVLEEALSYKVLMEKFERTQENIAQTIGKSXSHVANXMRLLXLPDEVQSYLVSGELTAXHARAIAAAADPVALAKQIIEGGLSVRETEALARKAPNLSAGKSKGGRPPRVKDTDTQALESDLSSVLGLDVSIDHRGSTGTLTITYATLEQLDDLCNRLTRGI

Variants of: B1
Assay: one-hybrid fitness for binding parS DNA (scaled: cognate 1, non-cognate 0); higher = stronger binding
Conditions: with parS DNA site
Summary of the method: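 Pre- and post-selection plasmids were Illumina-sequenced, three replicate libraries were pooled, and any variant with under 10 reads was removed. The libraries were Caulobacter ParB with four specificity codons randomised, selected in E. coli USO through a HIS3 reporter whose site is 19 bp from the promoter. Cells grew 48 hours at 37°C on M9 without histidine, with 0.1 mM IPTG and 5 mM 3-AT. Fitness is the log change in variant-to-wild-type read ratio, rescaled against cognate and non-cognate.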

Point of comparison: RYDG, “one-hybrid fitness for binding parS DNA” value 0.913. Against it:
- CSVV — lower, ≤ 0.2
- KPIC — lower, ≤ 0.2
- MTTN — lower, ≤ 0.2
- ESTT — lower, ≤ 0.2
- WICC — lower, 0.213
- YYNH — lower, ≤ 0.2
- GMAS — lower, ≤ 0.2
- WPKV — lower, ≤ 0.2
- GPAL — lower, ≤ 0.2
- MRNY — lower, ≤ 0.2
- KLKS — lower, ≤ 0.2
- EGLY — lower, ≤ 0.2
- RRTK — lower, ≤ 0.2
- AACG — lower, ≤ 0.2
- REWL — lower, ≤ 0.2
- GALF — lower, ≤ 0.2
- QHWW — lower, ≤ 0.2
- ETTR — lower, ≤ 0.2
- RIWY — lower, 0.471
- DYYT — lower, ≤ 0.2
- AYLC — lower, ≤ 0.2
- SRKR — lower, ≤ 0.2
- ALCG — lower, ≤ 0.2
- MVCG — lower, ≤ 0.2
- WNWG — lower, ≤ 0.2
- NVGR — lower, ≤ 0.2
- ARWC — lower, ≤ 0.2
- QKTK — lower, ≤ 0.2
- GEYR — lower, ≤ 0.2
- DVSL — lower, ≤ 0.2
- FSVL — lower, ≤ 0.2
- SEST — lower, ≤ 0.2
- ITSH — lower, ≤ 0.2
- PHRE — lower, ≤ 0.2
- YSLW — lower, ≤ 0.2
- MHAS — lower, ≤ 0.2
- GGIV — lower, ≤ 0.2
- WIDG — lower, ≤ 0.2
- SKKK — lower, ≤ 0.2
- SEIC — lower, ≤ 0.2
- GTAQ — lower, ≤ 0.2
- EVKR — lower, ≤ 0.2
- KYAR — lower, ≤ 0.2
- RINH — lower, 0.284
- RQMV — lower, ≤ 0.2
- LMYS — lower, ≤ 0.2
- VAST — lower, ≤ 0.2
- WKRA — lower, ≤ 0.2
- ACKF — lower, ≤ 0.2
- LTRG — lower, ≤ 0.2
- HTRA — lower, ≤ 0.2
- LRND — lower, ≤ 0.2
- YYEW — lower, ≤ 0.2
- LCPK — lower, ≤ 0.2
- FSKA — lower, ≤ 0.2
- MRMW — lower, ≤ 0.2
- PVRH — lower, ≤ 0.2
- YTEG — lower, ≤ 0.2
- SHGG — lower, ≤ 0.2
- TERM — lower, ≤ 0.2
- WAGC — lower, ≤ 0.2
- TKRV — lower, ≤ 0.2
- ESPC — lower, ≤ 0.2
- FEVN — lower, ≤ 0.2
- SYGL — lower, ≤ 0.2
- QGSW — lower, ≤ 0.2
- NYDT — lower, ≤ 0.2
- HMHA — lower, ≤ 0.2
- HPES — lower, ≤ 0.2
- TFTV — lower, ≤ 0.2
- PKLD — lower, ≤ 0.2
- NYAH — lower, ≤ 0.2
- FLRA — lower, ≤ 0.2
- TGFR — lower, ≤ 0.2
- TTGI — lower, ≤ 0.2
- EVML — lower, ≤ 0.2
- VNVV — lower, ≤ 0.2
- LTIR — lower, ≤ 0.2
- VACS — lower, ≤ 0.2
- RAWA — lower, 0.598
- AYLL — lower, ≤ 0.2
- PDNH — lower, ≤ 0.2
- IRFW — lower, ≤ 0.2
- QHGW — lower, ≤ 0.2
- GHVV — lower, ≤ 0.2
- QHHI — lower, ≤ 0.2
- QEDV — lower, ≤ 0.2
- RHWI — lower, ≤ 0.2
- FGCS — lower, ≤ 0.2
- WEPV — lower, ≤ 0.2
- HCTR — lower, ≤ 0.2
- WNSC — lower, ≤ 0.2
- GTRA — lower, ≤ 0.2
- CARK — lower, ≤ 0.2
- QAQV — lower, ≤ 0.2
- VCFS — lower, ≤ 0.2
- HRHE — lower, ≤ 0.2
- PTYG — lower, ≤ 0.2
- PAWK — lower, ≤ 0.2
- NLKT — lower, ≤ 0.2
- VHVR — lower, ≤ 0.2
- SDVC — lower, ≤ 0.2
- GPDD — lower, ≤ 0.2
- NRKH — lower, ≤ 0.2
- NRTK — lower, ≤ 0.2
- KTHA — lower, ≤ 0.2
- SGFT — lower, ≤ 0.2
- MKDF — lower, ≤ 0.2
- VNNT — lower, ≤ 0.2
- GLAG — lower, ≤ 0.2
- RADL — lower, ≤ 0.2
- WTWT — lower, ≤ 0.2
- WHVG — lower, ≤ 0.2
- VFSM — lower, ≤ 0.2
- RRIL — lower, ≤ 0.2
- WMDS — lower, ≤ 0.2
- HKKA — lower, ≤ 0.2
- DTLS — lower, ≤ 0.2
- PAPA — lower, ≤ 0.2
- PGTS — lower, ≤ 0.2
- ESGG — lower, ≤ 0.2
- STNN — lower, ≤ 0.2
- NTPK — lower, ≤ 0.2
- DQPF — lower, ≤ 0.2
- PMVC — lower, ≤ 0.2
- YQMR — lower, ≤ 0.2
- ESHR — lower, ≤ 0.2
- CIRG — lower, ≤ 0.2
- PPVF — lower, ≤ 0.2
- NMAY — lower, ≤ 0.2
- CSLV — lower, ≤ 0.2
- LHLC — lower, ≤ 0.2
- ALMF — lower, ≤ 0.2
- SSTD — lower, ≤ 0.2
- VKHA — lower, ≤ 0.2
- LAHR — lower, ≤ 0.2
- NNDI — lower, ≤ 0.2
- RVVN — lower, 0.41
- RSHI — lower, ≤ 0.2
- ENTL — lower, ≤ 0.2
- SQTP — lower, ≤ 0.2
- TDAE — lower, ≤ 0.2
- PAMD — lower, ≤ 0.2
- LFSP — lower, ≤ 0.2
- VLQK — lower, ≤ 0.2
- RVGT — higher, 0.924
- HCGT — lower, ≤ 0.2
- TAYL — lower, ≤ 0.2
- DKLF — lower, ≤ 0.2
- TSLP — lower, ≤ 0.2
- ADNR — lower, ≤ 0.2
- RPYE — lower, ≤ 0.2
